Assay results taken from publication PMC12820563.
This is one part of the list. The list includes weakly bound sequences.

Each sequence was assayed against T1, MBP-FoxP3dN (UniProt Q99JB6) (assay: PD-seq (MBP pull-down with sequencing)). Settings: 20 mM Tris-HCl pH 7.5, 100 mM NaCl, 1.5 mM MgCl2, 0.4 uM protein, 0.1 uM dsDNA library, 30 min, room temperature, amylose pull-down; high values mean tight binding; double strand, one strand shown.
T1 sequence: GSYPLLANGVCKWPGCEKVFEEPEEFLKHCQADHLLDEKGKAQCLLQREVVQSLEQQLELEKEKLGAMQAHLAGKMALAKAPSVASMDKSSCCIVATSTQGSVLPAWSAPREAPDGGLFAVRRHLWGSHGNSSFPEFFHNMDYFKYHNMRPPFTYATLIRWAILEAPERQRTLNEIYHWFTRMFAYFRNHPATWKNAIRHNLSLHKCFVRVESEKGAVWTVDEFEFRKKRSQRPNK

Row | Sequence | binding signal (RPM ratio (pull-down/input))
1 | GATGATTGTTCTCCCAGCTGATGAATTTCTGCACTCGAGTAAACAAATTTTCCTAATCTTTCTGTTCAAGCGCCATCTAC | 0.475
2 | GATGATTGTTCTCCCAGCTGATGAATTGTTATTTTCGAGTAAACAAATTTTCCTAATCTTTCTGTTCAAGCGCCATCTAC | 4.89
3 | GATGATTGTTCTCCCAGCTGATGAATTCTTAGTGTCGAGTAAACAAATTTTCCTAATCTTTCTGTTCAAGCGCCATCTAC | 0.401
4 | GATGATTGTTCTCCCAGCTGATGAATTGTCGTCATCGAGTAAACAAATTTTCCTAATCTTTCTGTTCAAGCGCCATCTAC | 0.938
5 | GATGATTGTTCTCCCAGCTGATGAATTTCCTTGCTCGAGTAAACAAATTTTCCTAATCTTTCTGTTCAAGCGCCATCTAC | 0.296
6 | GATGATTGTTCTCCCAGCTGATGAATTGACTTACTCGAGTAAACAAATTTTCCTAATCTTTCTGTTCAAGCGCCATCTAC | 0.734
7 | GATGATTGTTCTCCCAGCTGATGAATTGGGGACGTCGAGTAAACAAATTTTCCTAATCTTTCTGTTCAAGCGCCATCTAC | 0.307
8 | GATGATTGTTCTCCCAGCTGATGAATTTGGATTGTCGAGTAAACAAATTTTCCTAATCTTTCTGTTCAAGCGCCATCTAC | 1.29
9 | GATGATTGTTCTCCCAGCTGATGAATTGGTTGATTCGAGTAAACAAATTTTCCTAATCTTTCTGTTCAAGCGCCATCTAC | 2.7
10 | GATGATTGTTCTCCCAGCTGATGAATTCCGATCATCGAGTAAACAAATTTTCCTAATCTTTCTGTTCAAGCGCCATCTAC | 0.404
11 | GATGATTGTTCTCCCAGCTGATGAATTTCCTCAATCGAGTAAACAAATTTTCCTAATCTTTCTGTTCAAGCGCCATCTAC | 0.203
12 | GATGATTGTTCTCCCAGCTGATGAATTCTCGTGTTCGAGTAAACAAATTTTCCTAATCTTTCTGTTCAAGCGCCATCTAC | 0.485
13 | GATGATTGTTCTCCCAGCTGATGAATTGCTAATTTCGAGTAAACAAATTTTCCTAATCTTTCTGTTCAAGCGCCATCTAC | 0.661
14 | GATGATTGTTCTCCCAGCTGATGAATTCCTGCTGTCGAGTAAACAAATTTTCCTAATCTTTCTGTTCAAGCGCCATCTAC | 0.362
15 | GATGATTGTTCTCCCAGCTGATGAATTGTCTCGTTCGAGTAAACAAATTTTCCTAATCTTTCTGTTCAAGCGCCATCTAC | 0.434
16 | GATGATTGTTCTCCCAGCTGATGAATTTTATCCCTCGAGTAAACAAATTTTCCTAATCTTTCTGTTCAAGCGCCATCTAC | 0.535
17 | GATGATTGTTCTCCCAGCTGATGAATTACGCTCTTCGAGTAAACAAATTTTCCTAATCTTTCTGTTCAAGCGCCATCTAC | 0.664
18 | GATGATTGTTCTCCCAGCTGATGAATTGGAGATCTCGAGTAAACAAATTTTCCTAATCTTTCTGTTCAAGCGCCATCTAC | 0.248
19 | GATGATTGTTCTCCCAGCTGATGAATTGCAGACCTCGAGTAAACAAATTTTCCTAATCTTTCTGTTCAAGCGCCATCTAC | 0.496
20 | GATGATTGTTCTCCCAGCTGATGAATTGACTAAATCGAGTAAACAAATTTTCCTAATCTTTCTGTTCAAGCGCCATCTAC | 0.228
21 | GATGATTGTTCTCCCAGCTGATGAATTAATCTCTTCGAGTAAACAAATTTTCCTAATCTTTCTGTTCAAGCGCCATCTAC | 0.313

Row | Sequence | binding signal (RPM ratio (pull-down/input))
22 | GATGATTGTTCTCCCAGCTGATGAATTTCCCGGCTCGAGTAAACAAATTTTCCTAATCTTTCTGTTCAAGCGCCATCTAC | 0.162
23 | GATGATTGTTCTCCCAGCTGATGAATTTCACAGCTCGAGTAAACAAATTTTCCTAATCTTTCTGTTCAAGCGCCATCTAC | 0.247
24 | GATGATTGTTCTCCCAGCTGATGAATTTCTTTTTTCGAGTAAACAAATTTTCCTAATCTTTCTGTTCAAGCGCCATCTAC | 0.77
25 | GATGATTGTTCTCCCAGCTGATGAATTAGCTCACTCGAGTAAACAAATTTTCCTAATCTTTCTGTTCAAGCGCCATCTAC | 0.367
26 | GATGATTGTTCTCCCAGCTGATGAATTGTAGCCTTCGAGTAAACAAATTTTCCTAATCTTTCTGTTCAAGCGCCATCTAC | 2.28
27 | GATGATTGTTCTCCCAGCTGATGAATTGGCGAAGTCGAGTAAACAAATTTTCCTAATCTTTCTGTTCAAGCGCCATCTAC | 0.225
28 | GATGATTGTTCTCCCAGCTGATGAATTTACGTTATCGAGTAAACAAATTTTCCTAATCTTTCTGTTCAAGCGCCATCTAC | 1.1
29 | GATGATTGTTCTCCCAGCTGATGAATTCAGAGTCTCGAGTAAACAAATTTTCCTAATCTTTCTGTTCAAGCGCCATCTAC | 1.19
30 | GATGATTGTTCTCCCAGCTGATGAATTACCTTACTCGAGTAAACAAATTTTCCTAATCTTTCTGTTCAAGCGCCATCTAC | 0.372
31 | GATGATTGTTCTCCCAGCTGATGAATTTGTTAGTTCGAGTAAACAAATTTTCCTAATCTTTCTGTTCAAGCGCCATCTAC | 7.44
32 | GATGATTGTTCTCCCAGCTGATGAATTACACCGCTCGAGTAAACAAATTTTCCTAATCTTTCTGTTCAAGCGCCATCTAC | 0.442
33 | GATGATTGTTCTCCCAGCTGATGAATTGGGGAATTCGAGTAAACAAATTTTCCTAATCTTTCTGTTCAAGCGCCATCTAC | 0.706
34 | GATGATTGTTCTCCCAGCTGATGAATTTAACACATCGAGTAAACAAATTTTCCTAATCTTTCTGTTCAAGCGCCATCTAC | 0.559
35 | GATGATTGTTCTCCCAGCTGATGAATTAAAAGGGTCGAGTAAACAAATTTTCCTAATCTTTCTGTTCAAGCGCCATCTAC | 0.194
36 | GATGATTGTTCTCCCAGCTGATGAATTGCCATCATCGAGTAAACAAATTTTCCTAATCTTTCTGTTCAAGCGCCATCTAC | 1.56
37 | GATGATTGTTCTCCCAGCTGATGAATTTTAGCGCTCGAGTAAACAAATTTTCCTAATCTTTCTGTTCAAGCGCCATCTAC | 0.408
38 | GATGATTGTTCTCCCAGCTGATGAATTGAGGGGGTCGAGTAAACAAATTTTCCTAATCTTTCTGTTCAAGCGCCATCTAC | 0.567
39 | GATGATTGTTCTCCCAGCTGATGAATTCCAGTATTCGAGTAAACAAATTTTCCTAATCTTTCTGTTCAAGCGCCATCTAC | 0.893
40 | GATGATTGTTCTCCCAGCTGATGAATTGATGCCTTCGAGTAAACAAATTTTCCTAATCTTTCTGTTCAAGCGCCATCTAC | 3.31
41 | GATGATTGTTCTCCCAGCTGATGAATTCAAGAAATCGAGTAAACAAATTTTCCTAATCTTTCTGTTCAAGCGCCATCTAC | 0.248
42 | GATGATTGTTCTCCCAGCTGATGAATTGACACTATCGAGTAAACAAATTTTCCTAATCTTTCTGTTCAAGCGCCATCTAC | 0.798

Row | Sequence | binding signal (RPM ratio (pull-down/input))
43 | GATGATTGTTCTCCCAGCTGATGAATTCAGGGACTCGAGTAAACAAATTTTCCTAATCTTTCTGTTCAAGCGCCATCTAC | 0.347
44 | GATGATTGTTCTCCCAGCTGATGAATTACGAAACTCGAGTAAACAAATTTTCCTAATCTTTCTGTTCAAGCGCCATCTAC | 0.607
45 | GATGATTGTTCTCCCAGCTGATGAATTAAATTTTTCGAGTAAACAAATTTTCCTAATCTTTCTGTTCAAGCGCCATCTAC | 0.508
46 | GATGATTGTTCTCCCAGCTGATGAATTACTTTATTCGAGTAAACAAATTTTCCTAATCTTTCTGTTCAAGCGCCATCTAC | 0.651
47 | GATGATTGTTCTCCCAGCTGATGAATTAGTCGGGTCGAGTAAACAAATTTTCCTAATCTTTCTGTTCAAGCGCCATCTAC | 0.496
48 | GATGATTGTTCTCCCAGCTGATGAATTATGTAGATCGAGTAAACAAATTTTCCTAATCTTTCTGTTCAAGCGCCATCTAC | 1.23
49 | GATGATTGTTCTCCCAGCTGATGAATTCGTGCGGTCGAGTAAACAAATTTTCCTAATCTTTCTGTTCAAGCGCCATCTAC | 0.419
50 | GATGATTGTTCTCCCAGCTGATGAATTCTGCCGTTCGAGTAAACAAATTTTCCTAATCTTTCTGTTCAAGCGCCATCTAC | 1.49
51 | GATGATTGTTCTCCCAGCTGATGAATTTGTGTGGTCGAGTAAACAAATTTTCCTAATCTTTCTGTTCAAGCGCCATCTAC | 5.5
52 | GATGATTGTTCTCCCAGCTGATGAATTAGAGAAGTCGAGTAAACAAATTTTCCTAATCTTTCTGTTCAAGCGCCATCTAC | 0.226
53 | GATGATTGTTCTCCCAGCTGATGAATTTGGAACCTCGAGTAAACAAATTTTCCTAATCTTTCTGTTCAAGCGCCATCTAC | 0.33
54 | GATGATTGTTCTCCCAGCTGATGAATTGTTTATGTCGAGTAAACAAATTTTCCTAATCTTTCTGTTCAAGCGCCATCTAC | 7
55 | GATGATTGTTCTCCCAGCTGATGAATTTTGCACTTCGAGTAAACAAATTTTCCTAATCTTTCTGTTCAAGCGCCATCTAC | 1.95
56 | GATGATTGTTCTCCCAGCTGATGAATTGCACACTTCGAGTAAACAAATTTTCCTAATCTTTCTGTTCAAGCGCCATCTAC | 1.08
57 | GATGATTGTTCTCCCAGCTGATGAATTAGATTTGTCGAGTAAACAAATTTTCCTAATCTTTCTGTTCAAGCGCCATCTAC | 1.97
58 | GATGATTGTTCTCCCAGCTGATGAATTTCCTGTCTCGAGTAAACAAATTTTCCTAATCTTTCTGTTCAAGCGCCATCTAC | 0.322
59 | GATGATTGTTCTCCCAGCTGATGAATTGGGCATCTCGAGTAAACAAATTTTCCTAATCTTTCTGTTCAAGCGCCATCTAC | 6.41
60 | GATGATTGTTCTCCCAGCTGATGAATTTAGGTTTTCGAGTAAACAAATTTTCCTAATCTTTCTGTTCAAGCGCCATCTAC | 0.862
61 | GATGATTGTTCTCCCAGCTGATGAATTCTACAGTTCGAGTAAACAAATTTTCCTAATCTTTCTGTTCAAGCGCCATCTAC | 0.354
62 | GATGATTGTTCTCCCAGCTGATGAATTGAAGTTGTCGAGTAAACAAATTTTCCTAATCTTTCTGTTCAAGCGCCATCTAC | 0.722
63 | GATGATTGTTCTCCCAGCTGATGAATTAAGACCGTCGAGTAAACAAATTTTCCTAATCTTTCTGTTCAAGCGCCATCTAC | 0.337
